The values below come from PubChem BioAssay AID488969 (Vanderbilt High Throughput Screening Facility, 2010).

The full ranking holds about 110,000 compounds; the median of “z-score” is about -0.1, and the highest 2% start at about 2. This is one part of the list.

The target of this assay is Metabotropic glutamate receptor 8 (Rattus norvegicus) (UniProt P70579). The assay is described as follows: rat mGluR8 modulators via GIRK flux, primary screen, cell-based, thallium flux, HTS (AID 488969). The settings on record: HEK293 rat mGluR8, GIRK (G protein-gated inwardly rectifying potassium channel) thallium flux, FluoZin2; at 10 µM; stronger effect = higher value; submaximal glutamate (EC20) added with thallium.
UniProt P70579, sequence (P70579 whole entry, looked up): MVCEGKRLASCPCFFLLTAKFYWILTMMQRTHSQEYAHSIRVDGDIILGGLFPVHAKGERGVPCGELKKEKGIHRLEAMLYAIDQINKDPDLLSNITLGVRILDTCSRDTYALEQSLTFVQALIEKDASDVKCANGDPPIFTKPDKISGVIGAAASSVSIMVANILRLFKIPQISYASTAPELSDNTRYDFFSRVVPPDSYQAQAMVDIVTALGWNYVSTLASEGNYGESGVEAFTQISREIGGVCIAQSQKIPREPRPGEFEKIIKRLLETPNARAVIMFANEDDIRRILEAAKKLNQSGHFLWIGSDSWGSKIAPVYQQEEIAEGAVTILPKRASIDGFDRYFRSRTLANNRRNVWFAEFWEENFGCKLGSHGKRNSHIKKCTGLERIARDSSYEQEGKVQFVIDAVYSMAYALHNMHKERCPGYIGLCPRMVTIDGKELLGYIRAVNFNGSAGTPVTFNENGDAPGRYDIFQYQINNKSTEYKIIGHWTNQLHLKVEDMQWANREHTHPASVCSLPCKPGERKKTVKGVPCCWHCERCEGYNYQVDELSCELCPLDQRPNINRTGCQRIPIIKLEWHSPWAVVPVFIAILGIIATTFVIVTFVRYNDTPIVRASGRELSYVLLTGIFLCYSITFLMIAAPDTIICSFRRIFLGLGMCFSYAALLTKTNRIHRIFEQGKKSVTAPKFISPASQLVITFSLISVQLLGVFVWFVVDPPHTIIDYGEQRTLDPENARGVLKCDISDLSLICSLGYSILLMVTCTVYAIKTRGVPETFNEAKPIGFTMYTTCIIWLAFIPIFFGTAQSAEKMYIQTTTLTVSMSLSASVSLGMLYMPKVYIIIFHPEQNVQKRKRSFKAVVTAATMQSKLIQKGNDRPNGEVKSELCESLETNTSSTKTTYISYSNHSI
For `COC(=O)c1ccc2c(=O)[nH]c(CN3c4ccccc4CC3C)nc2c1` (stereo not given), the z-score amounted to 0.373.
With `COc1ccc(-c2nc3ccc(N4CCCC4)cc3c(=O)[nH]2)cc1OC`, the z-score was -0.908.
In the case of `C/C(=N/NC(=O)c1ccc(Br)o1)c1cccc(NC(=O)c2ccc(C)o2)c1`, the z-score stood at 0.0553.
In turn, `Cc1cccc(NC(=S)NNC(=O)c2sccc2C)c1` gave a z-score of 2.13.
In the case of `COc1ccccc1NC(=O)C(C/C=C(\C)Cl)C(C)=O` (stereo not given), the z-score is -0.044.
Regarding `CCN1c2ccccc2-c2nc3ccccc3n2C1c1cccs1` (stereo not given), the z-score was -0.919.
As to `CCOC(=O)CSc1nc2c(c(=O)[nH]c(=O)n2C)n1CCc1ccccc1`, the z-score was -0.422.
`CCOC(=O)c1cc(NC(=O)CSCCO)ccc1Cl`: the z-score was -0.351.
In the case of `COc1cc2ccccc2cc1C(=O)Nc1ccc(Cc2ccncc2)cc1` it was -0.647; in that of `C=CCN1C(=O)CC(C(=O)NC)SC1=Nc1ccc(C(=O)OCC)cc1` (stereo not given), 0.273; in that of `CC(C)c1ccc(NC(=O)COc2nnc(-c3cccs3)c(-c3cccs3)n2)cc1`, -0.3.
To `CSC1=N/C(=C\c2ccc3c(c2)OCO3)C(=O)S1` belongs -0.122; to `COc1ccc(CN(C(=O)CSc2nnc(-c3ccc(OC)c(OC)c3)o2)c2ccc(F)cc2)cc1`, -0.931; to `COc1ccc(C2SCC(=O)N2c2c(C)n(C)n(-c3ccccc3)c2=O)cc1OC` (stereo not given), 0.108.
To `COc1ccc(-c2noc(-c3ccccc3C(=O)NCc3ccco3)n2)cc1` belongs -0.286; to `CCOC(=O)CC1C(=O)NCCN1C(=O)c1ccc(F)cc1F` (stereo not given), 0.61.
Compound `COc1ccc(CC(NC(C)=O)C(=O)N2CCN(C(=O)N(C(C)C)C(C)C)CC2)cc1` (stereo not given) returned a z-score of 0.637.
`CCn1cc([N+](=O)[O-])c(C(=O)Nc2ccc3c(c2)OCCO3)n1`: the z-score worked out at 0.358.
As to `CC(C)COC(=O)Nc1ccccc1C(=O)N1CCOCC1`, the z-score stood at 0.0445.
As for `Cc1nn(-c2ccccc2)c(C)c1NC(=O)c1ccc(S(=O)(=O)N2CCCC2)cc1`, the z-score is -0.17.
In the case of `CN(C)c1ccc(N2CN=C3SCC(=O)N3C2)cc1` it was 0.00946; in that of `CCCN1C(=O)c2ccc(C(=O)NC3=NCCS3)cc2C1=O`, -0.106.
With `O=C(COCCOCC(=O)N(c1ccccn1)C1CCCCC1)N(c1ccccn1)C1CCCCC1`, the z-score was -0.162.
To `COc1ccc(-c2nc3ccccc3c(=O)n2CCOc2cccc(C)c2C)cc1` belongs 0.0536; to `CSc1nc(-c2ccco2)nn1C(=O)c1cccs1`, -0.365; to `COC(=O)C1C(=O)NC(SC)=C(C#N)C1c1ccccc1F` (stereo not given), -0.0603.
The compound `CCCCN(C)C(=O)CS(=O)(=O)Cc1nc(-c2cccc(OC)c2)oc1C` displayed a z-score of 0.122.
For the compound `Oc1ccc(N2CCN(C(c3cccnc3)c3nnnn3Cc3ccccc3)CC2)cc1` (stereo not given), the z-score was -0.968.
In the case of `Cc1ccc(OC(=O)c2ccc3snnc3c2)cc1` it was 0.0223.
Regarding `O=C(NCc1ccc2c(c1)OCO2)c1cc2ccccc2o1`, the z-score was -0.522.
